# The other results are listed elsewhere or left out.
# Assays:
# Experiment in all cases: glycan array binding signal (z-score within array); higher = stronger binding
# Settings in all cases: glycan notation: IUPAC condensed, linker removed
# [1] = target: Neu5Ac(a2-3)Gal(b1-4)GlcNAc(b1-6)GalNAc
# How it was run: (§1)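 Columns mapping to the same glycan were averaged after glycan names were converted to IUPAC-condensed notation. The data come from 3228 arrays in the Consortium for Functional Glycomics database, limited to those with an available protein sequence. Binding is reported as a within-array Z-score averaged across arrays of one protein sequence and across linkers.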
# [2] = target: Neu5Ac(a2-3)Gal(b1-4)GlcNAc(b1-6)[Gal(b1-3)]GalNAc
# How it was run: as §1
# [3] = target: Neu5Ac(a2-3)Gal(b1-4)GlcNAc(b1-6)[Neu5Ac(a2-3)Gal(b1-3)]GalNAc
# How it was run: as §1
# [4] = target: Neu5Ac(a2-3)Gal(b1-4)GlcNAc6S
# How it was run: as §1
# [5] = target: Neu5Ac(a2-3)Gal(b1-4)[Fuc(a1-3)]GlcNAc
# How it was run: as §1
# [6] = target: Neu5Ac(a2-3)Gal(b1-4)[Fuc(a1-3)]GlcNAc(b1-2)Man
# How it was run: as §1
# [7] = target: Neu5Ac(a2-3)Gal(b1-4)[Fuc(a1-3)]GlcNAc(b1-3)Gal
# How it was run: as §1
# [8] = target: Neu5Ac(a2-3)Gal(b1-4)[Fuc(a1-3)]GlcNAc(b1-3)Gal(b1-4)GlcNAc
# How it was run: as §1
# [9] = target: Neu5Ac(a2-3)Gal(b1-4)[Fuc(a1-3)]GlcNAc(b1-3)Gal(b1-4)[Fuc(a1-3)]GlcNAc(b1-3)Gal(b1-4)[Fuc(a1-3)]GlcNAc
# How it was run: as §1
# [10] = target: Neu5Ac(a2-3)Gal(b1-4)[Fuc(a1-3)]GlcNAc(b1-3)GalNAc
# How it was run: as §1
# [11] = target: Neu5Ac(a2-3)Gal(b1-4)[Fuc(a1-3)]GlcNAc(b1-6)[Gal(b1-3)]GalNAc
# How it was run: as §1
# [12] = target: Neu5Ac(a2-3)Gal(b1-4)[Fuc(a1-3)]GlcNAc(b1-6)[Neu5Ac(a2-3)Gal(b1-3)]GalNAc
# How it was run: as §1
# [13] = target: Neu5Ac(a2-3)Gal(b1-4)[Fuc(a1-3)]GlcNAc6S
# How it was run: as §1
# [14] = target: Neu5Ac(a2-3)Gal6S(b1-4)GlcNAc
# How it was run: as §1
# [15] = target: Neu5Ac(a2-3)Gal6S(b1-4)[Fuc(a1-3)]GlcNAc
# How it was run: as §1
# [16] = target: Neu5Ac(a2-3)GalNAc
# How it was run: as §1
# [17] = target: Neu5Ac(a2-3)GalNAc(b1-4)GlcNAc
# How it was run: as §1
# [18] = target: Neu5Ac(a2-3)[GalNAc(b1-4)]Gal(b1-4)Glc
# How it was run: as §1
# [19] = target: Neu5Ac(a2-3)[GalNAc(b1-4)]Gal(b1-4)GlcNAc
# How it was run: as §1
# [20] = target: Neu5Ac(a2-3)[GalNAc(b1-4)]Gal(b1-4)GlcNAc(b1-3)GalNAc
# How it was run: as §1
# [21] = target: Neu5Ac(a2-3)[Neu5Ac(a2-6)]GalNAc
# How it was run: as §1
# [22] = target: Neu5Ac(a2-6)Gal
# How it was run: as §1
# [23] = target: Neu5Ac(a2-6)Gal(b1-3)GlcNAc(b1-3)[Gal(b1-4)GlcNAc(b1-6)]Gal(b1-4)Glc
# How it was run: as §1
# [24] = target: Neu5Ac(a2-6)Gal(b1-4)Glc
# How it was run: as §1
# [25] = target: Neu5Ac(a2-6)Gal(b1-4)GlcNAc
# How it was run: as §1
# [26] = target: Neu5Ac(a2-6)Gal(b1-4)GlcNAc(b1-2)Man
# How it was run: as §1
# [27] = target: Neu5Ac(a2-6)Gal(b1-4)GlcNAc(b1-2)Man(a1-3)Man(b1-4)GlcNAc(b1-4)GlcNAc
# How it was run: as §1
# [28] = target: Neu5Ac(a2-6)Gal(b1-4)GlcNAc(b1-2)Man(a1-3)[Gal(b1-4)GlcNAc(b1-2)Man(a1-6)]Man(b1-4)GlcNAc(b1-4)GlcNAc
# How it was run: as §1
# [29] = target: Neu5Ac(a2-6)Gal(b1-4)GlcNAc(b1-2)Man(a1-3)[GlcNAc(b1-2)Man(a1-6)]Man(b1-4)GlcNAc(b1-4)GlcNAc
# How it was run: as §1
# [30] = target: Neu5Ac(a2-6)Gal(b1-4)GlcNAc(b1-2)Man(a1-3)[GlcNAc(b1-4)][Neu5Ac(a2-6)Gal(b1-4)GlcNAc(b1-2)Man(a1-6)]Man(b1-4)GlcNAc(b1-4)GlcNAc
# How it was run: as §1
# [31] = target: Neu5Ac(a2-6)Gal(b1-4)GlcNAc(b1-2)Man(a1-3)[Man(a1-6)]Man(b1-4)GlcNAc(b1-4)GlcNAc
# How it was run: as §1
# [32] = target: Neu5Ac(a2-6)Gal(b1-4)GlcNAc(b1-2)Man(a1-3)[Neu5Ac(a2-3)Gal(b1-4)GlcNAc(b1-2)Man(a1-6)]Man(b1-4)GlcNAc(b1-4)GlcNAc
# How it was run: as §1
# [33] = target: Neu5Ac(a2-6)Gal(b1-4)GlcNAc(b1-2)Man(a1-3)[Neu5Ac(a2-6)Gal(b1-4)GlcNAc(b1-2)Man(a1-6)]Man(b1-4)GlcNAc(b1-4)GlcNAc
# How it was run: as §1
# [34] = target: Neu5Ac(a2-6)Gal(b1-4)GlcNAc(b1-2)Man(a1-3)[Neu5Ac(a2-6)Gal(b1-4)GlcNAc(b1-2)Man(a1-6)]Man(b1-4)GlcNAc(b1-4)[Fuc(a1-6)]GlcNAc
# How it was run: as §1
# [35] = target: Neu5Ac(a2-6)Gal(b1-4)GlcNAc(b1-2)Man(a1-6)Man(b1-4)GlcNAc(b1-4)GlcNAc
# How it was run: as §1
# [36] = target: Neu5Ac(a2-6)Gal(b1-4)GlcNAc(b1-2)Man(a1-6)[Gal(b1-4)GlcNAc(b1-2)Man(a1-3)]Man(b1-4)GlcNAc(b1-4)GlcNAc
# How it was run: as §1
# [37] = target: Neu5Ac(a2-6)Gal(b1-4)GlcNAc(b1-2)Man(a1-6)[GlcNAc(b1-2)Man(a1-3)]Man(b1-4)GlcNAc(b1-4)GlcNAc
# How it was run: as §1
# [38] = target: Neu5Ac(a2-6)Gal(b1-4)GlcNAc(b1-2)Man(a1-6)[Man(a1-3)]Man(b1-4)GlcNAc(b1-4)GlcNAc
# How it was run: as §1
# [39] = target: Neu5Ac(a2-6)Gal(b1-4)GlcNAc(b1-2)[Neu5Ac(a2-6)Gal(b1-4)GlcNAc(b1-4)]Man(a1-3)[GlcNAc(b1-4)][Neu5Ac(a2-6)Gal(b1-4)GlcNAc(b1-2)[Neu5Ac(a2-6)Gal(b1-4)GlcNAc(b1-6)]Man(a1-6)]Man(b1-4)GlcNAc(b1-4)GlcNAc
# How it was run: as §1
# [40] = target: Neu5Ac(a2-6)Gal(b1-4)GlcNAc(b1-2)[Neu5Ac(a2-6)Gal(b1-4)GlcNAc(b1-4)]Man(a1-3)[GlcNAc(b1-4)][Neu5Ac(a2-6)Gal(b1-4)GlcNAc(b1-4)Man(a1-6)]Man(b1-4)GlcNAc(b1-4)GlcNAc
# How it was run: as §1
# [41] = target: Neu5Ac(a2-6)Gal(b1-4)GlcNAc(b1-2)[Neu5Ac(a2-6)Gal(b1-4)GlcNAc(b1-6)]Man(a1-6)[Neu5Ac(a2-6)Gal(b1-4)GlcNAc(b1-2)Man(a1-3)][GlcNAc(b1-4)]Man(b1-4)GlcNAc(b1-4)GlcNAc
# How it was run: as §1
# [42] = target: Neu5Ac(a2-6)Gal(b1-4)GlcNAc(b1-3)Gal(b1-3)GlcNAc
# How it was run: as §1
# [43] = target: Neu5Ac(a2-6)Gal(b1-4)GlcNAc(b1-3)Gal(b1-4)GlcNAc
# How it was run: as §1
# [44] = target: Neu5Ac(a2-6)Gal(b1-4)GlcNAc(b1-3)Gal(b1-4)GlcNAc(b1-2)Man(a1-3)[Neu5Ac(a2-6)Gal(b1-4)GlcNAc(b1-3)Gal(b1-4)GlcNAc(b1-2)Man(a1-6)]GalNAc
# How it was run: as §1
# [45] = target: Neu5Ac(a2-6)Gal(b1-4)GlcNAc(b1-3)Gal(b1-4)GlcNAc(b1-3)Gal(b1-4)GlcNAc
# How it was run: as §1
# [46] = target: Neu5Ac(a2-6)Gal(b1-4)GlcNAc(b1-3)Gal(b1-4)GlcNAc(b1-3)Gal(b1-4)GlcNAc(b1-2)Man(a1-3)[Neu5Ac(a2-6)Gal(b1-4)GlcNAc(b1-3)Gal(b1-4)GlcNAc(b1-3)Gal(b1-4)GlcNAc(b1-2)Man(a1-6)]GalNAc
# How it was run: as §1
binder,measurement,setting,value
SAOUHSC 00176 (Staphylococcus aureus) (protein) MSKILKCITLAVVMLLIVTACGPNRSKEDIDKALNKDNSKDKPNQLTMWVDGDKQMAFYKKITDQYTKKTGIKVKLVNIGQNDQLENISLDAPAGKGPDIFFLAHDNTGSAYLQGLAAEIKLSKDELKGFNKQALKAMNYDNKQLALPAIVETTALFYNKKLVKNAPQTLEEVEANAAKLTDSKKKQYGMLFDAKNFYFNYPFLFGNDDYIFKKNGSEYDIHQLGLNSKHVVKNAERLQKWYDKGYLPKAATHDVMIGLFKEGKVGQFVTGPWNINEYQETFGKDLGVTTLPTDGGKPMKPFLGVRGWYLSEYSKHKYWAKDLMLYITSKDTLQKYTDEMSEITGRVDVKSSNPNLKVFEKQARHAEPMPNIPEMRQVWEPMGNASIFISNGKNPKQALDEATNDITQNIKILHPSQNDKKGD,glycan array binding signal (z-score),[1],-0.1
same,glycan array binding signal (z-score),[2],-0.07
same,glycan array binding signal (z-score),[3],-0.113
same,glycan array binding signal (z-score),[4],-0.027
same,glycan array binding signal (z-score),[5],-0.132
same,glycan array binding signal (z-score),[6],-0.059
same,glycan array binding signal (z-score),[7],-0.152
same,glycan array binding signal (z-score),[8],0.011
same,glycan array binding signal (z-score),[9],-0.113
same,glycan array binding signal (z-score),[10],0.054
same,glycan array binding signal (z-score),[11],-0.092
same,glycan array binding signal (z-score),[12],0.049
same,glycan array binding signal (z-score),[13],0.059
same,glycan array binding signal (z-score),[14],-0.173
same,glycan array binding signal (z-score),[15],-0.251
same,glycan array binding signal (z-score),[16],-0.11
same,glycan array binding signal (z-score),[17],-0.141
same,glycan array binding signal (z-score),[18],-0.066
same,glycan array binding signal (z-score),[19],-0.077
same,glycan array binding signal (z-score),[20],-0.117
same,glycan array binding signal (z-score),[21],-0.053
same,glycan array binding signal (z-score),[22],-0.073
same,glycan array binding signal (z-score),[23],0.058
same,glycan array binding signal (z-score),[24],-0.077
same,glycan array binding signal (z-score),[25],-0.148
same,glycan array binding signal (z-score),[26],-0.082
same,glycan array binding signal (z-score),[27],0.068
same,glycan array binding signal (z-score),[28],0.124
same,glycan array binding signal (z-score),[29],0.051
same,glycan array binding signal (z-score),[30],-0.052
same,glycan array binding signal (z-score),[31],-0.021
same,glycan array binding signal (z-score),[32],-0.114
same,glycan array binding signal (z-score),[33],-0.065
same,glycan array binding signal (z-score),[34],-0.03
same,glycan array binding signal (z-score),[35],-0.045
same,glycan array binding signal (z-score),[36],-0.034
same,glycan array binding signal (z-score),[37],-0.092
same,glycan array binding signal (z-score),[38],-0.059
same,glycan array binding signal (z-score),[39],-0.179
same,glycan array binding signal (z-score),[40],-0.078
same,glycan array binding signal (z-score),[41],-0.119
same,glycan array binding signal (z-score),[42],-0.079
same,glycan array binding signal (z-score),[43],-0.079
same,glycan array binding signal (z-score),[44],-0.06
same,glycan array binding signal (z-score),[45],-0.044
same,glycan array binding signal (z-score),[46],0.358
